Values marked as one replicate rest on one cluster of the flow cell; about a third of the high ones do not repeat.
System: ATP
Assay: switch fluorescence ratio, 500 uM ATP over buffer (Cy3 cluster intensity, sum of 5 cycles each) (fold (ratio)); higher = stronger signal-on switching upon ATP binding; sequences stand for … in TCGTCGGCAGCGTCAGATGTGTATAAGAGACAGTTTTTTTTTTTTTTTTTTTTTTTTT…TC
Conditions: aptamer strand: ATP DNA aptamer (quencher-CACCTGGGGGAGTATTGCGGAGGAAGG + anchor), 100 nM annealed; ATP concentration: 500 uM; one replicate
In short: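 After annealing to 100 nM quencher-labelled ATP aptamer, Cy3-labelled switching-strand clusters on a modified Illumina MiSeq flow-cell were imaged in selection buffer. A second image followed after 15 min with 500 uM ATP at 22 °C, and five such buffer/ATP cycles were done, each separated by NaOH stripping and re-annealing. The fluorescence ratio, averaged per switch-domain sequence, is summed target-cycle over summed buffer-cycle Cy3 intensity per cluster, with clusters outside 100-1000 RFU excluded.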
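Further: ATP exposure 15 min at 22 °C before imaging.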

Sequence | switch fluorescence ratio
AATTCGGCG | 1.05
TAAGTAGGTA | 0.956
CTGGTTCCCC | 1.01
TGAAATGATT | 0.928
TTCAGCGATT | 1.06
TGATTGCGAG | 1.01
GCTTAGTCAA | 1
TATAGGTGTC | 0.994
GCCCTCTTCT | 0.995
ATATACGCGG | 1.02
GACGTGTTCA | 1.01
CGGTAGCAGG | 1.12
TAGCGTTCCT | 1.23
ATATAGGCAG | 0.994
CATATTGTCA | 1
GGCTTAATTT | 1
AGAATTAGC | 1
GTGGCTAGGA | 1.03
ATGTAAGATA | 0.975
CAGGCGTCCT | 1
TTTCCCTTTG | 0.987
CTCGGTCAAA | 1.19

Sequence | switch fluorescence ratio
GCGGGGGTAT | 0.973
CAGGAAAGGG | 1.02
ACTAAACTGG | 1.1
CGGTTGCGCG | 0.976
GTATAACAAC | 1.02
CGCGCCTAG | 0.987
CGGGTCTTGA | 0.976
AATGCACTGT | 1.05
GGTGCGGTGG | 0.992
GCCTGCAGCT | 0.999
GAGGATCCGA | 0.943
ACATCGGATA | 1.03
ATTTCGGACT | 0.965
TTATTCTGCC | 1.04
GGAGGCTGAT | 1.04
TTTCTAGCAG | 0.995
GCCACCACAT | 1.02
AGGACATCAA | 1.03
ATGCGGCCTT | 0.978
GTCTTTTCAT | 0.99
GGATGAAAGT | 0.985
TTCTCCGA | 1.13

Sequence | switch fluorescence ratio
ACACCTCCCG | 1.25
CGTTTCAGTT | 0.97
TATTGGCTGT | 0.973
TGTGTGGTCA | 0.982
ACCGAAATAT | 2.51
CTCTAAGTTA | 0.98
TGTAAGACAC | 1.04
CTGCGAGCGG | 1.04
TGTGATGCGG | 1.03
GCATATATCA | 0.982
TAAAGCCGAA | 1.01
ACCGGGCTTA | 1.03
TATTGATTCG | 1.04
TGTAGGATCC | 0.986
TAGGGTCTTC | 1.02
GAGCAAAATG | 1.08
GCATTGTTGA | 1.01
GCGAATG | 1.03
ATATGGCCAC | 0.961
TTTCTCGCAT | 4.08
AGGCAGATCA | 1.01
TCCCGGGCTA | 1.13

Sequence | switch fluorescence ratio
TTTGCTTACT | 3.57
GGAGTTACGT | 1.01
ACAAAAGTAA | 1.04
TATAACACAA | 1.08
TTACCGTATG | 1.02
TAGTTCTGGT | 0.944
AGGTGTGGTA | 0.995
CAGATCGGCA | 0.997
AGAACGTACA | 1.68
CAATTAGGTT | 0.984
AGCTGGTGT | 1.06
GCAACTGGAA | 1.06
GCGTGCCCC | 1.03
TATTCTATAG | 1.03
TGCGGCGTGT | 0.987
ACGGTGCAAG | 1.05
AGATTACTAA | 1.07
GGGCATTCAC | 1.15
AGCGAGCGTT | 1.02

From the supplement of paper PMC10126150
